Reference: the RNAGym collection of RNA variant scans (doi:10.7554/elife.90254)
The source gives no read counts; variants with many changes may rest on few reads.

B1: LINE1-mini (parent)
chain: GGCAGAGCUCAACACAGCGUGGCAAAGUGGCUGUGGCUAGACUGCC

Variants of: B1
Test: self-cleavage, relative activity (ratio to wild type); higher = more cleavage; in vitro, sequencing; the parent is a self-cleaving ribozyme

Variant	self-cleavage
G2C C18G G36U C45A	0.04
C3U G27A G33U	0.09
C8A C15A C23G	0.29
U9C G19U C23A C42A	0.06
G7U C10U A26C G40U	0.02
A6U A11G C18A A24C	0.01
C8U C15A G30A G33C	0.03
C3G G5U C8G G29C G33A A41C	0.03
G2U A11G C18U G33U	0.02
C3A G33A C42U G44A	0.18
A4U G19A G21A	0.1
A11G C15G C23A	0
A4U G22C U38C A39C	0.11
G5U G19C C23G	0.03
A11C A14U U20C A39G	0.02
G2C G7U A24U G36A	0.41
G19A G30U U32G C46G	0.13
A6U A24U A26C	0.97
G2U G36A G40A G44C	0.1
C3G G17C U20A	0.02
G29C U32A G40U	0.02

Variant	self-cleavage
G36U A39U U43C	0.03
C10A A24U U34A G44C	0.01
C15G G21A G29U A39C	0.02
G1A C10A A16U G21U G22U	0.14
C23G G29C C37A A39U	0
G1A A12C G17U G27C	0.04
A11U G17A G36U	0
G7C C10A G27C G30U U34C	0.02
G2C G21U G29U G40U	0.14
C18A G19U G36C	0.05
G5U U28C G30A C31G G44A	0.01
A6C G21U C37U	0.04
G1A C8U C10U G36C	0.42
C8G C13G A25C A26U G29A	0.07
U9C C15U C18A G36U G40C	0.01
G2C C8U G21C C45U	0.12
A4G U32G C37A C45G	0.05
G2A C13A G22A C23U C42A	0.38
G2U G29U C42A	0.15
G5C G21U G29U A41C	0.05
C8U C10U C18A G21U	0.09

Variant	self-cleavage
A4C C23U G35U C46A	3
G5A G7C U9A C13U A26U A41C C42A	0.23
C13U A26G U34C U38A	0
C3G C23U G29A	0.27
C3G G5U A39C	0.05
U9A G22U C31G G44U C45U	0.04
A6C A26C U28A	0.23
C3A C15U A39G	0.04
A16G C23A A24G A26G C42A	0
U9C A11C C23A	0.03
C3G G5U C10A G19U C31G	0.03
C15G U20A C31U	0.04
G17C G19C C42A C45A	0.03
G7C A14U U43C	0.2
G2A A12G G29C G30U G33C C37A	0.03
G2C C3U U20A C46A	0.15
G2U C18A C23A	0.05
C8G C13U U43C	0.05
G2U A4U C8A C15U C23G G27A	0.24
A14C G19U C37G	0.16
C8U A14G C18G A24G C31A	0.07

Variant	self-cleavage
G5U C15A A16G G27A C42U	0.08
C10A C13A A14U G29U	0.02
C13G G17C G27A C31A G35C G36C	0.01
G21C A24C G29A C46U	0.16
C3G A4G U32C C37G	0.08
C3G A6U A26C G44C	0.45
A14U C23A A26U U28A	0.49
G7C G21U C23U U28C U38C	0.08
G22C G27A G44U	0.19
G2U A6C G7U	0.17
G1U C8U G27C	0.01
G7U U28A G29A G30U C42U C45A	0.27
G5U A6U C37G	0.13
U28A G35U C46A	0.07
C8A C15A U20G	0.13
G2U C3A A4G G17C C45G	0.49
G1A U9A C23G	0.19
G2C C3U A6U C10A A16G	0.04
A12C A14G G30C C46U	0.02
A4C G29A C46U	0.47
